Test results reported in the supplement of paper PMC4604168 (melanoma cell lines).
The list shows a part of the results. Many values rest on one well or one pass, so single values are uncertain.
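Further: cells treated in 1,536-well plates, then fixed and DAPI-stained, with nuclei counted from automated high-throughput microscope images.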

Each molecule was assayed on RVH-421 (assay: cell count relative to DMSO control; melanoma cells; higher = more viable cells). Details: library dose: standard library concentration; 72 h.
In the case of Cc1ccc(NC(=O)c2cccc(N(C)C)c2)cc1NC(=O)c1ccc(O)cc1 + Cn1cc(/C=C2\C(=O)Nc3cccnc32)c2ccccc21 [GW441756] (first compound 10 µM, partner dose 2 µM), the cell count is reported as 86.7%. CC(C)(C)c1cnc(CSc2cnc(NC(=O)C3CCNCC3)s2)o1 + OCCn1cc(-c2cnc3nnn(Cc4ccc5ncccc5c4)c3n2)cn1 [PF04217903] (first compound 0.05 µM, partner dose 5 µM) was tested, and the cell count was 101%. For NC(=O)c1ccc(N(C(N)=O)c2c(F)cccc2F)nc1-c1ccc(F)cc1F + CCCCCCCCc1ccc(CCC(N)(CO)CO)cc1 [fingolimod] (first compound 2 µM, partner dose 10 µM), the cell count was 2.93%. For NC(=O)c1ccc(N(C(N)=O)c2c(F)cccc2F)nc1-c1ccc(F)cc1F + C[C@@H](Oc1cc(-c2cnn(C3CCNCC3)c2)cnc1N)c1c(Cl)ccc(F)c1Cl [Crizotinib] (first compound 2 µM, partner dose 1 µM), the cell count was 85.1%. In the case of CCCCCCCCc1ccc(CCC(N)(CO)CO)cc1 [fingolimod] + C=C(c1ccc(C(=O)O)cc1)c1cc2c(cc1C)C(C)(C)CCC2(C)C [Bexarotene] (first compound 10 µM, partner dose 10 µM), the cell count is reported as 6.75%. NC(=O)c1ccc(N(C(N)=O)c2c(F)cccc2F)nc1-c1ccc(F)cc1F + O=C(O)c1ccc(-c2c[nH]c3ncc(-c4ccccc4)cc23)cc1C1CCCC1 [GSK650394] (first compound 2 µM, partner dose 0.8 µM) was tested, and the cell count was 96.5%. With CCCCCCCCc1ccc(CCC(N)(CO)CO)cc1 [fingolimod] + CS(=O)(=O)CCNCc1ccc(-c2ccc3ncnc(Nc4ccc(OCc5cccc(F)c5)c(Cl)c4)c3c2)o1 [lapatinib] (first compound 10 µM, partner dose 4 µM) the cell count was 8.88%. Work on CC(C)(C)c1cnc(CSc2cnc(NC(=O)C3CCNCC3)s2)o1 + CN(NC(=O)CC(=O)NN(C)C(=S)c1ccccc1)C(=S)c1ccccc1 [STA4783] (first compound 0.05 µM, partner dose 0.03 µM) yielded a cell count of 55.1%. CCCCCCCCc1ccc(CCC(N)(CO)CO)cc1 [fingolimod] + COc1ccc(Cl)c(Nc2nc3ccccc3nc2NS(=O)(=O)c2cccc(NC(=O)C(C)(C)N)c2)c1 [XL147] (first compound 10 µM, partner dose 4 µM) showed a cell count of 74.8%. CCCCCCCCc1ccc(CCC(N)(CO)CO)cc1 [fingolimod] + C[C@@H]1CCN(C(=O)CC#N)C[C@@H]1N(C)c1ncnc2[nH]ccc12 [CP690550] (first compound 10 µM, partner dose 5 µM) showed a cell count of 6.4%. COc1cc2c(Oc3ccc4[nH]c(C)cc4c3F)ncnc2cc1OCCCN1CCCC1 [cediranib] + CCN(CC)CCCCNc1ncc2cc(-c3cc(OC)cc(OC)c3)c(NC(=O)NC(C)(C)C)nc2n1 [PD173074] (first compound 2 µM, partner dose 0.5 µM) showed a cell count of 87.9%. NC(=O)c1ccc(N(C(N)=O)c2c(F)cccc2F)nc1-c1ccc(F)cc1F + CN(C)S(=O)(=O)c1ccc2c(c1)/C(=C/c1cc3c([nH]1)CCCC3)C(=O)N2 [SU6656] (first compound 2 µM, partner dose 2 µM) showed a cell count of 92.3%. Work on CCCCCCCCc1ccc(CCC(N)(CO)CO)cc1 [fingolimod] + COCC[n+]1c2c(n(Cc3cnccn3)c1C)C(=O)c1ccccc1C2=O [YM155] (first compound 10 µM, partner dose 0.002 µM) yielded a cell count of 3.73%. Molecule CC(C)(C)c1cnc(CSc2cnc(NC(=O)C3CCNCC3)s2)o1 + COc1ccc2c(c1)CCC1C2CCC2(C)C(NCCCCCCN3C(=O)C=CC3=O)CCC12 [U73122] (first compound 0.05 µM, partner dose 2 µM) has a cell count of 66.1%. CC(C)(C)c1cnc(CSc2cnc(NC(=O)C3CCNCC3)s2)o1 + COc1ccc(COc2ccc(Cc3cnc(N)nc3N)cc2OC)cc1 [GW2580] (first compound 0.05 µM, partner dose 5 µM) gave a cell count of 63.9%.

These molecules were tested on SkMel28 in the same assay as above. Details: library dose: standard library concentration; 72 h.
Molecule COc1cc2c(Oc3ccc4[nH]c(C)cc4c3F)ncnc2cc1OCCCN1CCCC1 [cediranib] + N#Cc1c(O)c2c(-c3ccc(-c4ccccc4O)cc3)csc2[nH]c1=O [A769662] (first compound 2 µM, partner dose 10 µM) has a cell count of 107%. In the case of CC(C)(C)c1cnc(CSc2cnc(NC(=O)C3CCNCC3)s2)o1 + CN(C)S(=O)(=O)c1ccc2c(c1)/C(=C/c1cc3c([nH]1)CCCC3)C(=O)N2 [SU6656] (first compound 0.05 µM, partner dose 2 µM), the cell count is reported as 50.1%. COc1cc2c(Oc3ccc4[nH]c(C)cc4c3F)ncnc2cc1OCCCN1CCCC1 [cediranib] + COc1ccc(COc2ccc(Cc3cnc(N)nc3N)cc2OC)cc1 [GW2580] (first compound 2 µM, partner dose 5 µM) showed a cell count of 94.3%. Molecule CCCCCCCCc1ccc(CCC(N)(CO)CO)cc1 [fingolimod] + OCCn1cc(-c2cnc3nnn(Cc4ccc5ncccc5c4)c3n2)cn1 [PF04217903] (first compound 10 µM, partner dose 5 µM) has a cell count of 49.5%. In the case of NC(=O)c1ccc(N(C(N)=O)c2c(F)cccc2F)nc1-c1ccc(F)cc1F + Clc1ccc(Nc2nnc(Cc3ccncc3)c3ccccc23)cc1 [vatalanib] (first compound 2 µM, partner dose 10 µM), the cell count is reported as 101%. Work on CCc1ccc(CCOc2ccc(CC3SC(=O)NC3=O)cc2)nc1 (centres undefined) [pioglitazone] + CC(C)CCN1c2nc(Nc3cc(F)c(O)c(F)c3)ncc2N(C)C(=O)C1C [BID1870] (first compound 10 µM, partner dose 1 µM) yielded a cell count of 50.9%. Cc1ccc(NC(=O)c2cccc(N(C)C)c2)cc1NC(=O)c1ccc(O)cc1 + CN(C)S(=O)(=O)c1ccc2c(c1)/C(=C/c1cc3c([nH]1)CCCC3)C(=O)N2 [SU6656] (first compound 10 µM, partner dose 2 µM) was tested, and the cell count was 50.9%. NC(=O)c1ccc(N(C(N)=O)c2c(F)cccc2F)nc1-c1ccc(F)cc1F + Cc1cc(N2CCOCC2)cc2[nH]c(-c3c(NC[C@@H](O)c4cccc(Cl)c4)cc[nH]c3=O)nc12 [BMS536924] (first compound 2 µM, partner dose 1 µM) gave a cell count of 71.2%. For Cc1ccc(NC(=O)c2cccc(N(C)C)c2)cc1NC(=O)c1ccc(O)cc1 + CCCCCCCCCCCC1=C(O)C(=O)C=C(O)C1=O [Embelin] (first compound 10 µM, partner dose 6 µM), the cell count was 108%. Molecule CN(NC(=O)CC(=O)NN(C)C(=S)c1ccccc1)C(=S)c1ccccc1 + Cn1cc(/C=C2\C(=O)Nc3cccnc32)c2ccccc21 [GW441756] (first compound 0.03 µM, partner dose 2 µM) has a cell count of 15.8%. Work on CCCCCCCCc1ccc(CCC(N)(CO)CO)cc1 [fingolimod] + O=C(O)[C@@H]1[O][Sb](=[O])([O][Sb]2(=[O])[O][C@H]([C@H](O)CO)[C@H](O)[C@H](C(=O)O)[O]2)[O][C@H]([C@H](O)CO)[C@@H]1O [stibogluconate] (first compound 10 µM, partner dose 10 µM) yielded a cell count of 62.8%. In the case of Cc1ccc(NC(=O)c2cccc(N(C)C)c2)cc1NC(=O)c1ccc(O)cc1 + COc1cc(N2CCC(N3CCN(C)CC3)CC2)ccc1Nc1ncc(Cl)c(Nc2ccccc2S(=O)(=O)C(C)C)n1 [NVP-TAE684] (first compound 10 µM, partner dose 0.4 µM), the cell count is reported as 86.2%. COc1cc2c(Oc3ccc4[nH]c(C)cc4c3F)ncnc2cc1OCCCN1CCCC1 [cediranib] + COc1cc(N2CCC(N3CCN(C)CC3)CC2)ccc1Nc1ncc(Cl)c(Nc2ccccc2S(=O)(=O)C(C)C)n1 [NVP-TAE684] (first compound 2 µM, partner dose 0.4 µM) showed a cell count of 76.7%. In the case of COc1cc2c(Oc3ccc4[nH]c(C)cc4c3F)ncnc2cc1OCCCN1CCCC1 [cediranib] + Cn1cc(/C=C2\C(=O)Nc3cccnc32)c2ccccc21 [GW441756] (first compound 2 µM, partner dose 2 µM), the cell count is reported as 84.3%. For COc1cc2c(Oc3ccc4[nH]c(C)cc4c3F)ncnc2cc1OCCCN1CCCC1 [cediranib] + Oc1cc(-c2nc(-c3ccccc3)[nH]c2-c2ccncc2)ccc1Cl [L779450] (first compound 2 µM, partner dose 1 µM), the cell count was 58%. In the case of NC(=O)c1ccc(N(C(N)=O)c2c(F)cccc2F)nc1-c1ccc(F)cc1F + Cc1nc(Nc2ncc(C(=O)Nc3c(C)cccc3Cl)s2)cc(N2CCN(CCO)CC2)n1 [dasatanib] (first compound 2 µM, partner dose 0.02 µM), the cell count is reported as 67.2%. With CC(C)(C)c1cnc(CSc2cnc(NC(=O)C3CCNCC3)s2)o1 + c1cc(-c2cnn3cc(-c4ccc(OCCN5CCCCC5)cc4)cnc23)ccn1 [Dorsomorphin] (first compound 0.05 µM, partner dose 2 µM) the cell count was 4.18%. In the case of CC(C)(C)c1cnc(CSc2cnc(NC(=O)C3CCNCC3)s2)o1 + C[C@@H]1CCN(C(=O)CC#N)C[C@@H]1N(C)c1ncnc2[nH]ccc12 [CP690550] (first compound 0.05 µM, partner dose 5 µM), the cell count is reported as 73.1%. CC(C)(C)c1cnc(CSc2cnc(NC(=O)C3CCNCC3)s2)o1 + Oc1nc(-c2ccc(C(F)(F)F)cc2)nc2c1CSCC2 [XAV939] (first compound 0.05 µM, partner dose 10 µM) gave a cell count of 51.3%.
